Results published in the supplement of paper PMC3334620.
In all, about 33,000 sequences were measured (“E-score (-0.5 to 0.5)”: median about -0.021, highest 2% from about 0.32 on). This is one part of the list.

molecular target: T1, Zap1 (UniProt P47043); assay: PBM E-score (8-mer binding enrichment) (E-score (-0.5 to 0.5)); higher = stronger / more preferred TF binding; most listed sequences are background and not binding sites; conditions: protein concentration: 200 nM; construct: GST-full length
T1 sequence: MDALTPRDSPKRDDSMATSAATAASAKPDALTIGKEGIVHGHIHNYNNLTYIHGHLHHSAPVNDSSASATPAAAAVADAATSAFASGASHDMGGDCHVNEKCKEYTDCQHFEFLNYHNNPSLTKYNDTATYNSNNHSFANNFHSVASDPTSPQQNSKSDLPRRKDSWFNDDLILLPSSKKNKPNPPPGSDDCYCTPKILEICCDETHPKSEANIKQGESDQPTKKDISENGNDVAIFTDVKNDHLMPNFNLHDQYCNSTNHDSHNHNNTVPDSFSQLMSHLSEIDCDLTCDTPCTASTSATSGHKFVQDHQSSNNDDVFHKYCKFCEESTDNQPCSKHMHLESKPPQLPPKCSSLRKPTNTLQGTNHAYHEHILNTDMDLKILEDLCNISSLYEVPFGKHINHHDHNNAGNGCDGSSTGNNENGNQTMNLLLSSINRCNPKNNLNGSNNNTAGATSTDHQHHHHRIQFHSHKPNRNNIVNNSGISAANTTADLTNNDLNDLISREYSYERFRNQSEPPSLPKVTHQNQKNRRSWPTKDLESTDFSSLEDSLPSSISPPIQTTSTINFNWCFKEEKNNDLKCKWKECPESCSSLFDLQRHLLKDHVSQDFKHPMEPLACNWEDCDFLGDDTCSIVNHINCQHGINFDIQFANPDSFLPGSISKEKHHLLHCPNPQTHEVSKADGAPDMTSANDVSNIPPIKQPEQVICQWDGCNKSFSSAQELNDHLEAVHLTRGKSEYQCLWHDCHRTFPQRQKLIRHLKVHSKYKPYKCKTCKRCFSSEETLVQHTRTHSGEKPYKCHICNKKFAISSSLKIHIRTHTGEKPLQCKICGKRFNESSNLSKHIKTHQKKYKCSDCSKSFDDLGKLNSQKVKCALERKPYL
Protocol: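 Universal 'all 10-mer' protein binding microarrays (Agilent AMADID 015681) probed with GST-tagged S. cerevisiae TFs (full-length or DBD) made by in vitro transcription/translation (PURExpress), about 100-200 nM. Bound TF was detected with fluorescent anti-GST. Each ungapped 8-mer (which stands for itself and its reverse complement) is scored by the PBM enrichment score (E-score), a modified Wilcoxon-Mann-Whitney statistic from -0.5 to +0.5, computed with the Universal PBM Analysis Suite. Scale: above 0.35 generally sequence-specific binding.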

| Sequence | PBM E-score |
| --- | --- |
| AAATCAAT | -0.0755 |
| CGGCCCCG | -0.166 |
| CTATCTAA | 0.0707 |
| GCAGGCAA | -0.144 |
| AGTCCAGG | -0.167 |
| CAACCGCG | 0.282 |
| AACAAGAT | 0.0149 |
| CGATGCAC | -0.186 |
| ACAGGTAC | 0.314 |
| TATCAGGA | 0.0231 |
| AAATAGTT | 0.165 |
| AACGCGCC | -0.0616 |
| CAAACATC | 0.0154 |
| GCGGACGC | -0.191 |
| CCCATTGC | -0.0366 |
| CTCGACTC | -0.204 |
| GAAATTCC | -0.0737 |
| ATGGTAAG | -0.124 |
| ACCTACAA | 0.178 |
| CACCCTAA | 0.369 |
| GCGCTCAA | -0.223 |
| GGATGGAC | -0.124 |
| CATTCTGA | 0.0941 |
| ACAGTTCA | 0.0211 |
| ATCACTGC | -0.0971 |

| Sequence | PBM E-score |
| --- | --- |
| CGCCTCCA | -0.0322 |
| CTACCCGC | 0.244 |
| CCTCCCGA | -0.0955 |
| GAACGATC | -0.0462 |
| TCACTGGA | -0.0942 |
| GTCTGTAA | 0.173 |
| CACGGCGG | -0.052 |
| CTATACGA | -0.0396 |
| ACCTATCA | 0.0331 |
| ACCTAGTA | -0.06 |
| AAGATAAG | 0.0849 |
| TTCTGCAA | 0.174 |
| ATACGCAT | -0.00655 |
| ATATGCTC | -0.22 |
| CCTGGTCA | 0.0679 |
| CACGCATG | -0.13 |
| AAGGCCCA | -0.0609 |
| AGATCGTG | -0.0746 |
| AATCATCT | -0.191 |
| CCCCCAGC | -0.328 |
| CATACCGA | -0.0604 |
| AGACCTGC | -0.153 |
| AGTCTGCC | -0.219 |
| AAGACTTA | -0.0811 |
| AACCGAAA | 0.279 |

| Sequence | PBM E-score |
| --- | --- |
| GGTCCCAA | 0.0405 |
| CGACTGGA | -0.193 |
| CCATATGG | 0.0922 |
| AAGCAGGA | -0.00928 |
| GGCCTTAA | 0.319 |
| TCTGCCAA | -0.0873 |
| TACCGGTA | 0.355 |
| GGGCTGTA | -0.228 |
| AATGCGGA | -0.165 |
| AGACGATA | 0.0346 |
| CTGAGTCA | -0.153 |
| AACCAAGT | 0.271 |
| ATGAGAGA | -0.0163 |
| ATGTGACC | 0.268 |
| AGCTAGAT | -0.0318 |
| GGCCGTAA | 0.169 |
| ATAGGAGA | -0.253 |
| CCCCTTGA | 0.119 |
| TAGGTTCA | 0.175 |
| CGTCGGTC | -0.15 |
| AAGTGTCG | -0.00573 |
| ATCCACAC | 0.0343 |
| TACTTCCA | -0.0294 |
| GAGCACGA | -0.0755 |
| CGCGCTAG | -0.0302 |

| Sequence | PBM E-score |
| --- | --- |
| ACTAATCG | 0.0272 |
| GATGATCA | 0.0767 |
| GCCATACA | 0.135 |
| ACTAGGGG | -0.0537 |
| TGCCTACA | -0.254 |
| CGTCGTGC | -0.039 |
| AGGTATAA | 0.317 |
| GTGGTTAA | 0.406 |
| GCGGGGAC | -0.0999 |
| AATGTAAA | 0.159 |
| GTTAGCTA | -0.0983 |
| GTTAAGCA | 0.139 |
| CCGGAATA | 0.0339 |
| ATCAAATG | -0.0295 |
| GCAGACAC | -0.0371 |
| AGAATGCA | -0.0612 |
| CGGCATGC | -0.02 |
| CGAAAGCA | -0.0457 |
| CATTGTCA | 0.0486 |
| GACTTCTC | -0.184 |
| ATAGGGTC | 0.272 |
| AGGTAGAC | 0.18 |
| ACCATTAC | 0.241 |
| CCAACCCC | 0.224 |
| CAACGTGG | -0.00609 |

| Sequence | PBM E-score |
| --- | --- |
| TGCACCCA | -0.0158 |
| ATTCACTA | 0.0664 |
| GAGCGGAC | -0.34 |
| TATATCGA | 0.0316 |
| GATGTGGC | -0.153 |
| CTCGCGTA | -0.00405 |
| CCAGGACC | 0.0792 |
| GTGTACCA | 0.0904 |
| CGTAAGAC | -0.0865 |
| AAAGCCCT | -0.194 |
| GCGTCCCA | 0.0581 |
| TAGTATAA | 0.242 |
| ATCTGGGG | -0.155 |
| TACGCAGA | -0.0445 |
| TGAAACAA | 0.168 |
| AACCTCCG | 0.182 |
| CGAGGCCC | -0.14 |
| GGACAACC | 0.178 |
| ATCCATGC | -0.164 |
| CCAACGTA | 0.0537 |
| CCCTGAGA | -0.00467 |
| ACTGTGCC | -0.0879 |
| AAGATCCG | -0.306 |
| GGTTTAGA | 0.0494 |
| CTAACGAC | -0.0559 |

| Sequence | PBM E-score |
| --- | --- |
| AACACTAG | 0.00938 |
| ACGTGTAT | -0.152 |
| ATACGGCA | 0.0784 |
| CCGCGCTA | 0.067 |
| AATTGCAT | -0.0714 |
| ATCCTCTG | -0.0582 |
| CTAGATAA | 0.141 |
| CGAAGTAA | -0.0171 |
| ATGGCCCC | 0.12 |
| GCGATACA | -0.119 |
| ACATCTGA | -0.168 |
| ATATCAAT | 0.0604 |
| CAGAATTA | -0.189 |
| CAGTGGCA | -0.0724 |
| AGGGATGA | -0.195 |
| ACAAATGT | 0.161 |
| GAGGAAGA | -0.174 |
| CAGCAAGG | 0.101 |
| GTTCCATA | 0.0649 |
| TTCCAAAA | 0.144 |
| AACGACTG | 0.0117 |
| CGCGGGTA | 0.207 |
| ATACTAGA | 0.222 |
| CACCTACG | -0.273 |
| AGCTGCAT | -0.302 |

| Sequence | PBM E-score |
| --- | --- |
| AGTAGGAT | -0.181 |
| AAATTTCC | -0.0322 |
| ATGAGTTA | 0.133 |
| ATTGTGCC | -0.0584 |
| AGTGGTAG | 0.00106 |
| CAAAGTCG | -0.148 |
| GCGCGAAC | 0.00099 |
| ATGGTAGG | 0.0302 |
| CAGTACGA | 0.16 |
| CTAGATTA | 0.0484 |
| ACCGAAAC | 0.179 |
| TCCAACGA | -0.166 |
| CTTAGGGC | 0.0876 |
| AACGGGAT | -0.201 |
| CTATAAAC | 0.00765 |
| CTACGCCC | -0.139 |
| TAGTTCGA | -0.00397 |
| ACCCTTTG | 0.345 |
| AGTAGGGC | -0.0911 |
| CCACCAGG | 0.0565 |
| CGTTTTAC | -0.0753 |
| GTGAGTAA | 0.00798 |
| GTATAATA | 0.236 |
| ATTGATTA | 0.15 |
| ATTAAATC | 0.127 |

| Sequence | PBM E-score |
| --- | --- |
| ACGTCGCC | -0.193 |
| ACCGGGGG | -0.112 |
| GTCCTAAA | 0.116 |
| TACAGGCA | -0.214 |
| GTGTACAC | -0.0296 |
| CGTGTTAC | -0.0928 |
| AGGGCATA | -0.0988 |
| AGCCAGAG | -0.133 |
| GACGTAGA | -0.288 |
| CAATGTAG | -0.0257 |
| AGGTCACC | 0.37 |
| ACCCAGCT | -0.126 |
| AGATCATG | 0.105 |
| ACGCCGGG | -0.27 |
| AAGTGCAC | -0.0219 |
| CCTGTCTC | -0.125 |
| AATAATAC | 0.195 |
| ACACGCTA | -0.194 |
| GCGACTTA | -0.34 |
| AGTCATGA | 0.0992 |
| CTCCGTAC | -0.153 |
| CGATAAAG | -0.032 |
| AGTCATTA | -0.17 |
| AGGACTGA | -0.271 |
| CGCTAAGC | -0.109 |

| Sequence | PBM E-score |
| --- | --- |
| ACAGAGAC | -0.0117 |
| ACACTCGC | -0.0732 |
| CGGTGGTA | 0.0926 |
| GTAGGTCA | 0.0322 |
| GACATCCA | -0.152 |
| GAGTTGGA | -0.0415 |
| GAGGCAGC | -0.19 |
| GCCAATCA | -0.309 |
| ACCTGCAC | 0.0167 |
| GGGGGAAC | -0.33 |
| CATATCGC | -0.075 |
| GGTTACAC | 0.403 |
| GAAATTGC | -0.0286 |
| CCCGAGAC | 0.0124 |
| AAACCACG | -0.0205 |
| ATTTGACG | -0.00957 |
| GCAACTCC | -0.0898 |
| CCTCCCTC | -0.0502 |
| ATCAGATG | -0.17 |
